Source: PubChem BioAssay (Tox21)
Values joined by “and” are separate entries in the source; they are usually repeats but may differ in a detail not shown here. Identical values can stand only once. Inconclusive results, whose numbers are uncertain, are shown with a selection of clear calls. Where the call is inconclusive, the potency comes from a doubtful curve fit. The source holds several records for some structures; these can differ, active in one and inactive in another. Active and inactive are the calls of the source. Calls come from the whole dose curve; as a rule, active = well fitted curve in the direction sought with a large enough effect in the repeat runs; inconclusive = weak or mixed curves; inactive = no such curve, though single readings can be large; an effect the other way counts as inactive or inconclusive.

Key:
[1] = qHTS RealTime-Glo MT Cell Viability Assay in HEK293 cells - 32 hour (AID 1224868); note: nearly all actives have a fitted effect of over 50% in size
Method in brief: (§1)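 Homogeneous bioluminescent viability format in HEK293 cells (600 cells/well). Following 5 h at 37 C/5% CO2, 23 nL compound was pintooled; the signal was measured repeatedly during 40 h incubation.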

[2] = qHTS RealTime-Glo MT Cell Viability Assay in HEK293 cells - 16 hour (AID 1224872); note: nearly all actives have a fitted effect of over 50% in size
Method in brief: as §1

[3] = qHTS RealTime-Glo MT Cell Viability Assay in HEK293 cells - 40 hour (AID 1224874); settings: RealTime-Glo luminescence; max response: stronger effect = lower value; note: nearly all actives have a fitted effect of over 50% in size; for max response: % is set by controls: 0 for no effect and ±100 for the full control effect
Method in brief: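 600 HEK293 cells per well, dispensed already mixed with RealTime-Glo MT reagents. Compound dosing came 5 h later. The same wells were read for luminescence at 0, 8, 16, 24, 32 and 40 h of exposure at 37 C.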

[4] = qHTS RealTime-Glo MT Cell Viability Assay in HepG2 cells - 8 hour (AID 1224873); note: nearly all actives have a fitted effect of over 55% in size
Method in brief: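 HepG2 cells mixed with RealTime-Glo MT reagents (NanoLuc plus cell-permeant prosubstrate) were seeded at 600 cells/well, incubated 5 h at 37 C/5% CO2, then pinned with compounds in DMSO; nonlytic luminescence tracked viability during 40 h treatment.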

[5] = A CellTox Green Cytotoxicity Assay to monitor cytotoxicity in HEK293 cells - 24 hour (AID 1224875); note: nearly all actives have a fitted effect of over 45% in size
Method in brief: (§2)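 Dead-cell fluorescence measured kinetically: asymmetric cyanine dye, HEK293, 600 cells/well, 5 h settle, 23 nL cpd/DMSO, 37 C, reads 0–40 h every 8 h.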

[6] = A CellTox Green Cytotoxicity Assay to monitor cytotoxicity in HEK293 cells - 0 hour (AID 1224869); note: nearly all actives have a fitted effect of over 50% in size
Method in brief: as §2

[7] = A CellTox Green Cytotoxicity Assay to monitor cytotoxicity in HEK293 cells - 40 hour (AID 1224871); note: nearly all actives have a fitted effect of over 45% in size
Method in brief: as §2
Potency is the fitted concentration of half-maximal effect; tags give direction and shape of the fitted curve.

O=C(NC(=O)c1ccccc1Cl)Nc1ccc(OC(F)(F)F)cc1
Potency [1]: inconclusive: 7.76 µM [cytotoxic, full curve]
Potency [2]: inconclusive: 21.9 µM [cytotoxic, partial curve]
Potency [3]: inconclusive: 7.76 µM [cytotoxic, partial curve]

COP(=S)(OC)SCn1nnc2ccccc2c1=O
Potency [1]: inconclusive: 48 µM [cytotoxic, single point] and inconclusive: 49 µM [cytotoxic, partial curve]
Potency [2]: inconclusive: 48 µM [cytotoxic, partial curve] and inconclusive: 49 µM [cytotoxic, single point]

CC(=O)[O-].CC(=O)[O-].O.O.O.[Pb+2]
Potency [1]: inconclusive: 1.95 µM [rising, partial curve, poor fit]
Potency [2]: inconclusive: 1.55 µM [rising, full curve, poor fit]

CCOC(=O)CBr
Potency [1]: inconclusive: 61.9 µM [cytotoxic, partial curve, poor fit]
Potency [2]: inconclusive: 43.8 µM [cytotoxic, partial curve]

Cc1c(Cl)c(=O)oc2cc(OP(=O)(OCCCl)OCCCl)ccc12
Potency [1]: inconclusive: 19 µM [cytotoxic, partial curve]
Potency [2]: inconclusive: 10.7 µM [cytotoxic, partial curve]
Potency [4]: inconclusive: 30.1 µM [falling, single point]

Cc1ccc(N)cc1N
Potency [1]: inconclusive: 23.9 µM [rising, partial curve, poor fit] and inconclusive: 54.9 µM [rising, partial curve, poor fit]
Potency [2]: inactive

CC(=O)[O-].CC(=O)[O-].[Hg+2]
Potency [1]: inconclusive: 0.389 µM [rising, partial curve]
Potency [2]: inconclusive: 0.389 µM [rising, partial curve]
Potency [4]: active: 2.45 µM
Potency [5]: active: 21.9 µM

O=[N+]([O-])c1ccc(Oc2ccc(Cl)cc2Cl)cc1
Potency [1]: inconclusive: 55.3 µM [cytotoxic, partial curve] and inconclusive: 49 µM [cytotoxic, partial curve]
Potency [2]: inconclusive: 55.3 µM [cytotoxic, single point] and inconclusive: 49 µM [cytotoxic, partial curve]
Potency [3]: inconclusive: 49.2 µM [cytotoxic, single point] and inconclusive: 49 µM [cytotoxic, partial curve]

COC(=O)N(C(=O)N1CO[C@@]2(C(=O)OC)Cc3cc(Cl)ccc3C2=N1)c1ccc(OC(F)(F)F)cc1
Potency [1]: inconclusive: 15 µM [cytotoxic, partial curve]
Potency [2]: inconclusive: 15 µM [cytotoxic, partial curve]
Potency [4]: inconclusive: 29.9 µM [falling, partial curve]
Potency [3]: inconclusive: 15 µM [cytotoxic, partial curve]

CCCCCCCCCCCCCCCCCC(=O)O
Potency [1]: inconclusive: 43.3 µM [cytotoxic, partial curve, poor fit]
Potency [2]: inconclusive: 38.6 µM [cytotoxic, partial curve]
Potency [3]: inconclusive: 48.6 µM [cytotoxic, partial curve, poor fit]

Oc1c(Cl)c(Cl)c(Cl)c(Cl)c1Cl
Potency [1]: inconclusive: 48 µM [cytotoxic, single point] and inconclusive: 54.9 µM [cytotoxic, single point]
Potency [2]: inconclusive: 53.9 µM [cytotoxic, partial curve, poor fit] and inconclusive: 54.9 µM [cytotoxic, single point]
Potency [3]: inconclusive: 53.9 µM [cytotoxic, partial curve] and inconclusive: 24.5 µM [cytotoxic, partial curve, poor fit] and inconclusive: 54.9 µM [cytotoxic, single point]

CN1C(=O)C(O)N=C(c2ccccc2)c2cc(Cl)ccc21 (configuration not stated)
Potency [1]: inconclusive: 50.7 µM [cytotoxic, partial curve]
Potency [2]: inactive
Potency [3]: inconclusive: 50.7 µM [cytotoxic, partial curve]

NC(=S)Nc1ccccc1
Potency [1]: active: 5.59 µM
Potency [2]: inconclusive: 17.7 µM [cytotoxic, full curve]
Potency [3]: active: 4.98 µM

CC1OC(C)OC(C)O1 (configuration not stated)
Potency [1]: inactive
Potency [2]: inactive

CON(C)C(=O)Nc1ccc(Cl)c(Cl)c1
Potency [1]: inconclusive: 49.2 µM [cytotoxic, partial curve, poor fit]
Potency [2]: inconclusive: 49 µM [cytotoxic, partial curve]

COC(C)(C)CCCC(C)C/C=C/C(C)=C/C(=O)OC(C)C (configuration not stated)
Potency [1]: inconclusive: 48.2 µM [cytotoxic, partial curve, poor fit]
Potency [2]: inconclusive: 48.2 µM [cytotoxic, partial curve]
Potency [3]: inconclusive: 48.2 µM [cytotoxic, partial curve, poor fit]

N#Cc1cc(I)c(O)c(I)c1
Potency [1]: inconclusive: 54.9 µM [cytotoxic, single point]
Potency [2]: inconclusive: 54.9 µM [cytotoxic, partial curve, poor fit]

C#CC(C)(C)NC(=O)c1cc(Cl)cc(Cl)c1
Potency [1]: inconclusive: 49.4 µM [cytotoxic, partial curve, poor fit]
Potency [2]: inconclusive: 55.5 µM [cytotoxic, single point]
Potency [3]: inconclusive: 55.5 µM [cytotoxic, partial curve, poor fit]

Oc1cc(Cl)c(Cl)c(Cl)c1Cl
Potency [1]: active: 47.8 µM
Potency [2]: inconclusive: 53.7 µM [cytotoxic, single point]
Potency [3]: active: 47.8 µM

Nc1ccc(Cc2ccc(N)c(Cl)c2)cc1Cl
Potency [1]: active: 26.6 µM
Potency [2]: active: 29.9 µM
Potency [4]: inconclusive: 42.2 µM [falling, partial curve]

N#CC(Br)Br
Potency [1]: inconclusive: 17.3 µM [rising, partial curve, poor fit]
Potency [2]: inconclusive: 15.4 µM [rising, partial curve]

OC(Cc1ccccc1Cl)(Cn1[nH]cnc1=S)C1(Cl)CC1 (configuration not stated)
Potency [1]: inconclusive: 54.9 µM [cytotoxic, single point]
Potency [2]: inconclusive: 61.6 µM [cytotoxic, single point]
Potency [3]: inconclusive: 54.9 µM [cytotoxic, single point]

O=C(O)COc1cc(Cl)c(Cl)cc1Cl
Potency [1]: active: 15.5 µM
Potency [2]: inconclusive: 17.4 µM [cytotoxic, partial curve]

O=C(O)CCCc1ccc(N(CCCl)CCCl)cc1
Potency [1]: inconclusive: 13.9 µM [cytotoxic, full curve] and inconclusive: 38.9 µM [cytotoxic, partial curve] and inconclusive: 10.7 µM [cytotoxic, single point]
Potency [2]: inconclusive: 10.7 µM [cytotoxic, single point]
Potency [3]: inconclusive: 13.9 µM [cytotoxic, full curve] and inconclusive: 34.7 µM [cytotoxic, partial curve] and inconclusive: 10.7 µM [cytotoxic, single point]

CCC1(c2ccc(N)cc2)CCC(=O)NC1=O (configuration not stated)
Potency [1]: inconclusive: 38.9 µM [cytotoxic, partial curve]
Potency [2]: inconclusive: 38.9 µM [cytotoxic, partial curve, poor fit]
Potency [3]: inconclusive: 24.5 µM [cytotoxic, partial curve]

Cl/C=C\C[N+]12CN3CN(CN(C3)C1)C2
Potency [1]: inconclusive: 61.6 µM [cytotoxic, partial curve, poor fit]
Potency [2]: inconclusive: 54.9 µM [cytotoxic, single point]
Potency [3]: inconclusive: 61.6 µM [cytotoxic, partial curve, poor fit]

CCCCCCCCCCCCN=C(N)N
Potency [1]: active: 1.2 µM
Potency [2]: inconclusive: 1.35 µM [cytotoxic, partial curve]
Potency [3]: active: 1.07 µM

Nc1ccc(N=Nc2ccccc2)cc1
Potency [1]: inconclusive: 34.7 µM [cytotoxic, partial curve]
Potency [2]: inconclusive: 15.5 µM [cytotoxic]
Potency [4]: inconclusive: 34.7 µM [phenotype inactive, partial curve, poor fit]
Potency [3]: inconclusive: 43.6 µM [cytotoxic, partial curve]

Nc1ccccc1C(=O)OC/C=C/c1ccccc1
Potency [1]: active: 24.6 µM
Potency [2]: active: 24.6 µM
Potency [3]: active: 24.6 µM

CCCCN(CC)C(=O)SCCC
Potency [1]: inactive and active: 19.5 µM
Potency [2]: inconclusive: 21.9 µM [cytotoxic, full curve]
Potency [3]: inconclusive: 19.5 µM [cytotoxic, full curve]

CC(COc1ccc(Oc2ccccc2)cc1)Oc1ccccn1 (configuration not stated)
Potency [1]: inconclusive: 21.9 µM [cytotoxic, partial curve]
Potency [2]: inconclusive: 24.5 µM [cytotoxic, full curve]

BrCC(Br)C1CCC(Br)C(Br)C1 (configuration not stated)
Potency [1]: inconclusive: 48.8 µM [cytotoxic, partial curve, poor fit]
Potency [2]: inconclusive: 34.5 µM [cytotoxic, partial curve]

CCCC[N+]1(C)CCCCC1
Potency [6]: inconclusive: 49.6 µM [activator, partial curve]
Potency [7]: inconclusive: 62.5 µM [activator, single point] and inconclusive: 54.7 µM [activator, single point]
max response [3]: inactive: -0.0247% [middle of 5 runs]
Potency [5]: inconclusive: 62.5 µM [activator, single point] and inconclusive: 54.7 µM [activator, single point]
